In PubChem BioAssay AID2546 (National Center for Advancing Translational Sciences (NCATS), 2010):
Where “and” joins values, the source holds several entries; their conditions need not be identical. Equal entries are not always repeated. About 11,000 (3.5%) of roughly 310,000 compounds were called active. This list was built around the results that the source calls inconclusive (neither active nor inactive); the mix of calls is not that of the screen. Calls follow the shape of the dose curve; as a rule, active = well fitted inhibition curve with a large enough effect; inconclusive = small, poorly fitted or top-dose-only effect, or effect the other way; inactive = flat fitted curve, though single readings scatter. Potencies beside an inconclusive call are fits to weak or partial responses and may not hold up.

Assay: VP16 counterscreen qHTS for inhibitors of ROR gamma transcriptional activity;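 also: Gal4-VP16 expression switched on by copper sulfate through the metallothionein promoter; nearly all actives have a fitted effect of over 50% in size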
Conditions: Drosophila S2 Gal4-VP16 UAS-luciferase, luminescence, 20 h; series mostly up to 53.6 µM
Potency is read from the fitted curve at half-maximal effect; tags tell the direction and shape of the fitted curve.

| SMILES | Potency |
| --- | --- |
| COc1ccc(/C=N/NC(=O)c2ccc(Cl)cc2)cc1Cn1cc(Cl)cn1 | inconclusive: 35.5 µM [inhibitor, single point] |
| Cc1ccc(C(=O)N/N=C\c2ccc(-c3ccc(Cl)c(Cl)c3)o2)cn1 | inconclusive: 35.5 µM [inhibitor, single point] |
| COc1ccc(C(=O)/C=C/c2cccc(OCc3ccccc3)c2)cc1CSCC(=O)O | inconclusive: 35.5 µM [inhibitor, single point] |
| Cn1c(CNC(=O)CNC(=O)c2ccccc2F)cc(=O)n(C)c1=O | inactive |
| CC(=O)c1cccc(NC(=O)c2ccc3c(=O)n4c(nc3c2)CCCCC4)c1 | active: 5.01 µM |
| Cn1nccc1C(=O)N/N=C/c1c(O)ccc2ccccc12 | active: 2.82 µM |
| COc1cc(C(=O)Nc2c(C(=O)O)[nH]c3ccc(Br)cc23)cc(OC)c1OC | inactive |
| O=c1[nH]c2ccccc2cc1CN(Cc1cccnc1)S(=O)(=O)c1ccc(Cl)cc1 | inactive |
| COc1ccccc1NC(=O)COC(=O)Cc1c[nH]c2ccccc12 | inactive |
| CN(C)CCNc1ccc(-c2nn(C)c(=O)c3ccccc23)cc1[N+](=O)[O-] | inactive |
| CCc1cc2c(=O)c(-c3cnn(-c4ccccc4)c3)c(C)oc2c(CN2CCCCC2)c1O | inactive |
| COCCNC(=S)NN(c1ccccc1)c1ccccc1 | inconclusive: 35.5 µM [inhibitor, single point] |
| CCn1nc(C)c(CN2CCCC(CNS(=O)(=O)c3ccc(OC)cc3)C2)c1C (stereo unspecified) | inactive |
| CCCCCCCn1c2c(c(=N)c3c1CCC3)CCCC2 | active: 5.62 µM |
| O=C(O)c1ccc(CN2C(=O)c3cccc4c([N+](=O)[O-])ccc(c34)C2=O)cc1 | active: 7.08 µM |
| COc1cc(NC(=O)c2cc3sccc3n2C)cc(OC)c1 | inconclusive: 5.62 µM [inhibitor, single point] |
| CC(C)(CO)N1CCN(C(=S)Nc2ccccc2)CC1 | inactive |
| COc1ccccc1Nc1nc(N)nc(CSC(=S)N2CC(C)CC(C)C2)n1 (stereo unspecified) | active: 25.1 µM |
| Cc1nn(CCC#N)c2nc(-c3ccccc3)cc(C(F)(F)F)c12 | inactive |
| C[C@@H](C(=O)NC1CCCCC1)N1C(=O)N2CCc3c([nH]c4ccccc34)[C@@]2(C)C1=O | inactive |
| O=C(O)c1ccc(CCN2CCN(CC=Cc3ccc(Cl)cc3)CC2)cc1 | inactive |
| Cc1cc(Cl)ccc1OCC(=O)NN1C(=O)C2C3C=CC(C3)C2C1=O (stereo unspecified) | inactive |
| Cc1ccc2c(CN3CCN(CCO)CC3)cc(=O)oc2c1 | inactive |
| Cc1cc(C)c2c(CN3CCN(C)CC3)cc(=O)oc2c1 | inactive |
| COc1cccc(NC(=O)C2CCN(S(=O)(=O)c3ccc4c(c3)CC(C)N4C(C)=O)CC2)c1 (stereo unspecified) | inconclusive: 35.5 µM [inhibitor, single point] |
| O=C(COc1ccc(Cl)cc1Cl)NC(=S)N1CCCc2ccccc21 | inconclusive: 35.5 µM [inhibitor, single point] |

| SMILES | Potency |
| --- | --- |
| Fc1ccc(COc2cccc(-c3n[nH]c(=S)o3)c2)cc1 | inconclusive: 2.82 µM [activator, single point] |
| CC(Sc1nnc(-c2ccccc2)c(-c2ccccc2)n1)C(=O)N1CCc2ccccc21 (stereo unspecified) | active: 11.2 µM |
| COC(=O)c1ccc(COC(=O)c2[nH]c(C)c(C(C)=O)c2C)o1 | active: 7.94 µM |
| Nc1nc(-c2ccccc2)cn1N | active: 7.08 µM |
| Cc1cccc(/C(N)=N/OC(=O)c2cccs2)c1 | inconclusive: 35.5 µM [inhibitor, single point] |
| O=C(ONC1=NCCCCC1)c1cccc([N+](=O)[O-])c1 | inactive |
| O=C(Cc1ccccc1)Nc1ccc(Br)c(Cl)c1 | inconclusive: 12.6 µM [inhibitor, single point] |
| Cc1cccc2c1NC(=O)C2=Nc1ccc(Cl)cc1 | inactive |
| CCC(C)Nc1nc(Cl)nc(N(C#N)CN2C(=O)c3ccccc3S2(=O)=O)n1 (stereo unspecified) | inactive |
| O=c1c(-c2cccs2)nc2cnc(N3CCNCC3)nc2n1CCc1ccccc1 | inconclusive: 31.6 µM [inhibitor, single point] |
| CCc1cccc(CC)c1NC(=S)/C(=C(\[O-])c1ccc(Cl)s1)[n+]1ccccc1 | inactive |
| Cc1ccccc1NC(=S)NC(=O)c1cc(-c2ccccc2)nc2ccccc12 | active: 3.98 µM |
| CCc1nc(N(CC)CC)c2oc3ccccc3c2n1 | inconclusive: 25.1 µM [inhibitor, single point] |
| CCOc1ccc(/C=C2\SC(=O)N(CCNC(=O)CN3C(=O)NC4(CCCC4)C3=O)C2=O)cc1OC | inactive |
| COc1ccc(CCNc2oc(COc3ccccc3Cl)nc2C#N)cc1OC | inactive |
| COc1ccc2[nH]c(=O)c(CN(C(=O)c3cccnc3)c3ccccc3C)cc2c1 | inactive |
| COC(=O)N/N=C/c1cccc(OC(=O)c2ccc3c(c2)OCO3)c1 | inactive |
| Cc1ccc(-c2nn(-c3ccccc3)cc2C=O)o1 | inconclusive: 15.8 µM [inhibitor, single point] |
| COc1cc(NC(=O)Cn2nc(C(F)(F)F)c(Br)c2C)cc([N+](=O)[O-])c1 | active: 17.8 µM |
| O=C(Nc1cccc(NC(=S)NC(=O)c2cccs2)c1)c1ccccc1 | inconclusive: 5.62 µM [activator, single point] |
| O=C(Cn1sc2ccccc2c1=O)NC12CC3CC(CC(C3)C1)C2 | active: 0.501 µM |
| Cc1ccc(-c2ccc(/C=C(\C#N)C(N)=S)n2C)cc1 | inconclusive: 2.24 µM [inhibitor, full curve] |
| CC1=C(C(=O)OC(C)C)C(c2ccccc2)NC(=S)N1C (stereo unspecified) | inconclusive: 35.5 µM [inhibitor, single point] |
| COc1cc(C(=O)OCC(=O)NC(C)CCc2ccccc2)cc(OC)c1OC (stereo unspecified) | inactive |
| COc1cc(/C=C2\SC(=Nc3ccccc3)N(CCc3c[nH]c4ccccc34)C2=O)ccc1OC(C)C(=O)O (stereo unspecified) | inconclusive: 15.8 µM [inhibitor, single point] |
| S=C(NCc1ccco1)Nc1ccccc1 | inconclusive: 22.4 µM [inhibitor, single point] |

| SMILES | Potency |
| --- | --- |
| Cc1ccc(N2CCN(/N=C/c3ccncc3)CC2)cc1 | active: 14.1 µM |
| c1ccc(N(c2ccccc2)c2nc(N3CCOCC3)nc(N3CCOCC3)n2)cc1 | inactive |
| CC1CCC(C(C)C)C(OC(=O)Cn2c(-c3ccccc3)[n+](C)c3ccccc32)C1 (stereo unspecified) | active: 3.55 µM and active: 6.31 µM |
| COc1cc(C(=O)Nc2ccc3c(c2)Cc2cc(NC(=O)c4cc(OC)c(OC)c(OC)c4)ccc2-3)cc(OC)c1OC | inconclusive: 10 µM [inhibitor, partial curve] |
| COc1ccc(CN(Cc2nc3ccccc3c(=O)[nH]2)C(=O)NC2CCCCC2)cc1 | inconclusive: 35.5 µM [inhibitor, single point] |
| Cc1ccc(NC(=S)Nc2cccc3cnccc23)cc1 | inconclusive: 28.2 µM [inhibitor, single point] |
| CC(C)Nc1nc(C#N)nc(Nc2ccccc2)n1 | inconclusive: 25.1 µM [inhibitor, single point] |
| C=CC[n+]1c(-c2ccc(C)cc2)csc1NNC(=O)Nc1ccccc1 | inconclusive: 22.4 µM [inhibitor, single point] |
| COc1ccc(CNc2cc(NCCCO)c([N+](=O)[O-])c3nonc23)cc1 | inconclusive: 5.62 µM [inhibitor, partial curve] |
| CCc1ccc2[nH]c(=O)c(CN(CCN(CC)CC)C(=O)Nc3ccccc3OC)cc2c1 | inactive |
| CC(=O)N1CCSc2ccc(S(=O)(=O)NCCc3ccc(Cl)cc3)cc21 | inconclusive: 31.6 µM [inhibitor, single point] |
| O=C(NCC(c1cccs1)N1CCOCC1)c1ccccc1NS(=O)(=O)c1cccc([N+](=O)[O-])c1 (stereo unspecified) | inconclusive: 35.5 µM [inhibitor, single point] |
| CSCc1nnc(NC(=O)c2ccc(S(=O)(=O)N(C)C)cc2)o1 | active: 5.01 µM |
| C=CC(=O)OCCOCCOCCOCCOC(=O)C=C | inconclusive: 7.94 µM [inhibitor, single point] and inconclusive: 35.5 µM [inhibitor, single point] |
| O=C(c1ccc(F)cc1)C(CN1CCOCC1)c1ccccc1 (stereo unspecified) | active: 11.2 µM |
| COCCn1c(SCC(=O)/C=C2\N(C)c3ccccc3C2(C)C)nnc1-c1ccncc1 | inconclusive: 35.5 µM [inhibitor, single point] |
| CSc1nc(C=Nc2ccccc2Cl)c(O)n1Cc1cccc(Cl)c1 | inconclusive: 35.5 µM [inhibitor, single point] |
| O=C(CCc1ccccc1)NC(=S)NCc1ccco1 | inconclusive: 22.4 µM [inhibitor, single point] |
| CCCOc1ccccc1C1NC(=O)NC(C)=C1C(=O)OCc1ccccc1 (stereo unspecified) | inconclusive: 35.5 µM [inhibitor, single point] |
| CCOC(=O)C1CCN(S(=O)(=O)c2cccc(-c3cn4cccnc4n3)c2)CC1 | inconclusive: 35.5 µM [inhibitor, single point] |
| O=C(Cn1nnc(-c2ccccc2)n1)N/N=C/c1cc([N+](=O)[O-])c(Cl)cc1Cl | inconclusive: 5.01 µM [activator, single point] |
| O=C(c1ccccc1)c1coc2c1C(=O)c1ccccc1C2=O | inconclusive: 25.1 µM [inhibitor, single point] |
| O=C(NC(=S)Nc1ccccc1N1CCCCC1)c1ccc(F)cc1 | active: 6.31 µM |
| O=C(CN1C(=O)C2CC=CCC2C1=O)OCC(=O)c1ccc(Cl)c([N+](=O)[O-])c1 (stereo unspecified) | active: 35.5 µM |
